# According to PubChem BioAssay AID1030 (National Center for Advancing Translational Sciences (NCATS), 2008):
# Among all 220,000 compounds or so, about 16,000 (7.3%) were called active. This list was built around the results that the source calls inconclusive (neither active nor inactive); the mix of calls is not that of the screen. The call rests on the fitted dose curve; in most records, active means well fitted inhibition curve with a large enough effect (not every such curve was filed as active); inconclusive means small, poorly fitted or top-dose-only effect, or another doubt; inactive means no such curve, though single readings can be large or run the other way. No potency is given beside an inconclusive call; the fits are too rough. Where a structure was tested more than once in an assay, its records may differ in their call.
# Molecular target: Aldehyde dehydrogenase 1A1 (Homo sapiens) (UniProt P00352)
# Assay: qHTS Assay for Inhibitors of Aldehyde Dehydrogenase 1 (ALDH1A1);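 on activity, negative = inhibition: plate controls were no enzyme wells and a reference inhibitor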
# Conditions: Purified ALDH1A1, NADH fluorescence, propionaldehyde substrate; series mostly up to 75.3 µM; activity, negative = inhibition: at the top concentration
# Potency means the concentration at half of the fitted maximal effect; tags describe the fitted curve by direction and shape.
# Sequence of UniProt P00352 (P00352 whole entry, looked up): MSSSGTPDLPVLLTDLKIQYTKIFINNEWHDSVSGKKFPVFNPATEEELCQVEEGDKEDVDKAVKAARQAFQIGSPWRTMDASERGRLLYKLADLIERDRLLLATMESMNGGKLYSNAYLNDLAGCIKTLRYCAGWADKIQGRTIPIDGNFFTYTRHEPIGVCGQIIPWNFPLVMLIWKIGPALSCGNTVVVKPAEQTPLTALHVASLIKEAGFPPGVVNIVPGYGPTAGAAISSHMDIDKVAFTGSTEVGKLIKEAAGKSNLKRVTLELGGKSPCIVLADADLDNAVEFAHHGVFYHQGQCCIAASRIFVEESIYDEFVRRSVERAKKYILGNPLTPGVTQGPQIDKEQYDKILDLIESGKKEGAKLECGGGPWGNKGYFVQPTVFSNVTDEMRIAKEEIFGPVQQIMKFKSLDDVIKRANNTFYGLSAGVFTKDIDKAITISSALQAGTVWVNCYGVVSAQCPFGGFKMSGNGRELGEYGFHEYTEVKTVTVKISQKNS
SMILES,Potency,"activity, negative = inhibition"
CNC(=O)c1cccn(Cc2cccc(C(F)(F)F)c2)c1=O,"inconclusive [inhibitor, single point]",–
OC(CNC1CCCCC1)c1ccccc1 (stereo not drawn),–,inactive: 13.7%
Cc1cc2oc(=O)cc(-c3ccccc3)c2c(C)c1-c1ccc(CO)cc1,"inconclusive [inhibitor, partial curve]",–
CCOP(=O)(OCC)c1nc(-c2ccc(F)cc2)oc1NCc1ccccc1,"inconclusive [inhibitor, partial curve]",–
O=C1C2CCCN2C(c2ccccc2)N1c1ccccn1 (stereo not drawn),"inconclusive [inhibitor, single point]",–
CC1(C)OC(c2ccccc2)=C/C(=C/C=C2C(=O)NC(=S)NC2=O)O1,"inconclusive [inhibitor, partial curve]",–
O=C1C=C2C(=CCOC2O)O1 (stereo not drawn),"inconclusive [inhibitor, single point]",–
O=c1oc2ccccc2c(O)c1C(c1ccccc1O)c1c(O)c2ccccc2oc1=O,–,inactive: 10.4%
c1ccc(-c2nnc(SCc3nc4ccccc4[nH]3)o2)cc1,"inconclusive [inhibitor, single point]",–
COC(=O)c1cc(COc2cc(C)cc3oc(=O)c4c(c23)CCC4)c(C)o1,"inconclusive [inhibitor, partial curve]",–
CC(=O)C1C2c3ccccc3OC1(C)N=c1s/c(=C/c3cn(C)nc3C)c(=O)n12 (stereo not drawn),active: 10 µM,–
O=C1NC(=O)N(CCc2ccc(F)cc2)C(=O)/C1=C/c1ccco1,active: 2.51 µM,–
Cc1cc(C)nc(NS(=O)(=O)c2ccc(N=Cc3c(O)n(C)c(=O)n(C)c3=O)cc2)n1,–,inactive: 4.54%
COc1ccc(OCC#CCN2CCC(C)CC2)cc1,"inconclusive [inhibitor, partial curve]",–
NC(Cc1cc(O)c(O)cc1O)C(=O)O (stereo not drawn),active: 11.2 µM,–
C[C@H]1CCC[C@H](O)CCCCCc2cc(O)cc(O)c2C(=O)O1,–,inactive: -4.05%
CC1CCN(C(=O)C(C)Cl)CC1 (stereo not drawn),"inconclusive [inhibitor, single point]",–
CCCCC(=O)N/N=C/c1c(O)n(C2CC2)c(=S)[nH]c1=O,–,inactive: -10.8%
N[C@H](CCCCCP(=O)(O)O)C(=O)O,inactive,–
CC(=O)[O-].CC(=O)[O-].O.O.[Cd+2],active: 7.51 µM,–
Cc1ccc2c(c1)CC1(CN2C)C(=O)NC(=O)N(CCC2=CCCCC2)C1=O (stereo not drawn),active: 3.55 µM,–
CN(C)C1(c2nnnn2CCOC(=O)Nc2ccc(Cl)cc2)CCCCC1,"inconclusive [inhibitor, single point]",–
Cn1ncnc2c(=O)n(C)c(=O)nc1-2,"inconclusive [inhibitor, single point]",–
COC(=O)c1ccccc1N,"inconclusive [inhibitor, partial curve]",–
CN(C)S(=O)(=O)c1ccc(Cl)c(NC(=O)COC(=O)CN2C(=O)C3CCCCC3C2=O)c1 (stereo not drawn),"inconclusive [inhibitor, partial curve]",–
CN(N=O)c1cc(O)ccc1O,active: 20 µM,–

SMILES,Potency,"activity, negative = inhibition"
COc1ccc(N=Cc2c(O)n(-c3ccc(C)cc3)c(=O)[nH]c2=O)cc1,"inconclusive [inhibitor, single point]",–
Cc1coc2c1CCC(C)C2 (stereo not drawn),"inconclusive [inhibitor, single point]",–
CN(CCCCC(=O)/C=N/O)Cc1ccccc1 (tested in a mixture with another compound),–,inactive: 16.9%
BrC1C(Br)C(Br)C(Br)C(Br)C1Br (stereo not drawn),active: 20 µM,–
CN1C[C@H](CO)C=C2c3cccc4[nH]cc(c34)C[C@H]21,"inconclusive [inhibitor, partial curve]",–
Oc1ccc2c3c1O[C@H]1c4c(c5ccccc5n4Cc4ccccc4)C[C@@]4(O)C(C2)N(CC2CC2)CC[C@]314,–,inactive: 4.98%
COC1=CC(=O)OC(/C=C/c2ccccc2)C1 (stereo not drawn),inactive,–
CCOC(=O)C(NC(=O)C(Cc1ccc(N(CCCl)CCCl)cc1)NC(C)=O)C(C)C (stereo not drawn),"inconclusive [inhibitor, partial curve]",–
Oc1ccc2c3c1O[C@H]1c4c(c5ccccc5n4Cc4ccccc4)C[C@]4(O)[C@H](C2)N(CC2CC2)CC[C@@]314,–,inactive: -5.89%
CN(C)CC1CSCCC1(O)c1ccccc1 (stereo not drawn),active: 12.6 µM,–
O=c1c2ccc(Cl)cc2[nH]c(=S)n1-c1cccnc1,"inconclusive [inhibitor, single point]",–
COc1ccccc1CN1CCN(Cc2ccc(Cl)cc2)CC1,"inconclusive [inhibitor, partial curve]",–
Cn1c(=O)c2c(nc(SCc3ccccc3)n2Cc2ccc(Cl)cc2)n(C)c1=O,"inconclusive [inhibitor, partial curve]",–
CCOC(=O)CC(SP(=O)(OC)OC)C(=O)OCC (stereo not drawn),active: 11.2 µM,–
CCN(CC)c1ccc(/C=C2/C(=O)NC(=O)N(CC3CCCO3)C2=O)cc1 (stereo not drawn),active: 0.631 µM,–
C=CCCC#N,active: 3.16 µM,–
CC/C(=C(\c1ccccc1)c1ccc(OCCN(C)C)cc1)c1ccc(O)cc1,"inconclusive [inhibitor, single point]",–
Brc1ccc(Oc2ccc(Br)cc2Br)c(Br)c1,"inconclusive [inhibitor, partial curve, poor fit]",–
O=C(NCC(c1cccnc1)N1CCOCC1)Oc1ccccc1 (stereo not drawn),"inconclusive [inhibitor, single point]",–
CCOC(=O)c1c(N)n(CCN2CCOCC2)c2nc3ccccc3nc12,"inconclusive [inhibitor, partial curve]",–
CSc1nc2ccccc2n1C(=O)Oc1ccccc1,"inconclusive [inhibitor, single point]",–
O=c1[nH]c(=S)[nH]c(O)c1N=Nc1ccc(SC(F)F)cc1,active: 20 µM,–
Clc1ccc2ccccc2c1,–,inactive: -5.19%
CCN1C(=O)C(=Cc2cc(C)n(C3CC3)c2C)C(=O)N(CC)C1=S,active: 10 µM,–
O=C1CCCCC1,"inconclusive [inhibitor, single point]",–
C=CCN1C(=O)NC(=O)/C(=C\c2ccc(-c3ccccc3[N+](=O)[O-])o2)C1=O,active: 22.4 µM,–

SMILES,Potency,"activity, negative = inhibition"
O=c1[nH]c(=O)n(CCC2=CCCCC2)c(O)c1/C=N/Nc1ccccc1,–,inactive: -2.88%
CN1CCc2nc(SC(C(=O)O)c3ccccc3)c(C#N)c(-c3cccs3)c2C1 (stereo not drawn),"inconclusive [inhibitor, single point]",–
COc1cc(CNC(=O)CCCC/C=C\C(C)C)ccc1O,active: 3.55 µM,–
Cn1nc(-c2ccc(OCC(=O)N3CCN(Cc4ccccc4)CC3)cc2)c2ccccc2c1=O,inactive,–
CCCCCCn1c(=O)c(C(=O)Nc2cnccn2)c(O)c2ccccc21,"inconclusive [inhibitor, partial curve]",–
O=C(Cc1ccccc1)OCc1ccccc1,"inconclusive [inhibitor, single point]",–
O=C(O)C(Oc1nc(=S)[nH]c(=S)[nH]1)(c1ccc(Cl)cc1)c1ccc(Cl)cc1,–,inactive: 3.63% [at 13.5 µM]
CCN1CCN(Cc2nnnn2C(C)(C)C)CC1,"inconclusive [inhibitor, single point]",–
C[C@H](NC(=O)[C@@H](N)Cc1ccc(O)cc1)C(=O)N[C@@H](Cc1ccccc1)C(=O)N[C@@H](Cc1ccccc1)C(N)=O,–,inactive: -7.08%
COc1cc(OC)c(/C=C2/C(=O)Nc3ccccc32)c(OC)c1,"inconclusive [inhibitor, partial curve]",–
CN(C)c1ccc(N(C)C)cc1,"inconclusive [inhibitor, single point]",–
O=c1[nH]c(=O)n(Cc2ccccc2)c(O)c1/C=C1\C=Nc2ccccc21,"inconclusive [inhibitor, partial curve]",–
CCC(=Nc1ccc(OC)cc1OC)c1c(O)n(C)c(=O)n(C)c1=O,"inconclusive [inhibitor, single point]",–
Cc1ccc(OCC(=O)N2CCN(CC3CC4C=CC3C4)CC2)cc1 (stereo not drawn),"inconclusive [inhibitor, single point]",–
O=C(c1cc(-c2ccncc2)nc2ccccc12)N1CCC2(CC1)OCCO2,"inconclusive [inhibitor, single point]",–
Cc1ccc(C)c(Cn2c(C(=O)O)c(C=O)c3ccccc32)c1,active: 18.9 µM,–
Cc1cc(-c2ccc(N)c(C)c2)ccc1N,active: 28.2 µM,–
CN(C)c1ccc(Cc2ccc(N(C)C)cc2)cc1,"inconclusive [inhibitor, single point]",–
CC(=NCCN1CCOCC1)c1c(O)n(Cc2ccccc2)c(=O)[nH]c1=O,"inconclusive [inhibitor, single point]",–
O=C1C=CC(=O)c2c1ccc1c2ccc2ccccc21,active: 0.316 µM,–
CC(C)(C)c1[nH]nc2c1C(c1ccoc1)C(C#N)=C(N)O2 (stereo not drawn),active: 15.8 µM,–
C[C@@H](Cc1ccc(OCC(=O)O)cc1)NC[C@H](O)c1cccc(Cl)c1,–,inactive: -3.99%
Cc1ccnc(NS(=O)(=O)c2ccc(N=Cc3c(O)n(C)c(=O)n(C)c3=O)cc2)n1,–,inactive: -6.93%
Cc1cc(C=C2C(=O)NC(=S)NC2=O)c(C)n1-c1ccc2c(c1)OCO2,active: 2.82 µM,–
Nn1c(Cc2cccc3ccccc23)n[nH]c1=S,active: 22.4 µM,–
CN(C)C(=O)Oc1ccc(-c2cn3cc(Cl)ccc3n2)cc1,"inconclusive [inhibitor, single point]",–
